# Reference: PubChem BioAssay (Tox21)
# Inconclusive results, whose numbers are uncertain, are shown with a selection of clear calls. A call without a number means that no potency is given here. For some assays here: A potency beside an inconclusive call is a rough fit, not a confirmed value. Activity calls are given as the source filed them. Unless noted, calls follow the shape of the dose curve; as a rule, active = well fitted curve in the direction sought with a large enough effect in the repeat runs; inconclusive = weak or mixed curves; inactive = no such curve, though single readings can be large; an effect the other way counts as inactive or inconclusive.
# Columns and labels:
# [1] = A CellTox Green Cytotoxicity Assay to monitor cytotoxicity in HEK293 cells - 8 hour (AID 1224884); also: nearly all actives have a fitted effect of over 35% in size; also: potency is read from the fitted curve at half-maximal effect
# Summary of the method: (§1)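 Seeding of HEK293 cells together with cytotoxicity dye preceded a 5 h incubation at 37 C/5% CO2. Test compounds in DMSO were then added and fluorescence monitored across 40 h.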
# [2] = qHTS assay for identifying genotoxic compounds that show differential cytotoxicity against isogenic chicken DT40 cell lines with known DNA damage response pathways - Rev3 mutant cell line (AID 743014); details: chicken DT40 Rev3-/- viability, CellTiter-Glo, 40 h; activity, negative = cytotoxicity: at 68.4 µM (top of the series) unless noted; also: nearly all actives have a fitted effect of over 55% in size; also: potency is read from the fitted curve at half-maximal effect
# [3] = qHTS assay for small molecule activators of the heat shock response signaling pathway (AID 743210; active = well fitted activation curve with a large enough effect in the signal ratio in the repeat runs, with a control signal flat, not every such curve was filed as active; inconclusive = weak or mixed curves; the % refers to the signal ratio; also: potency is read from the fitted curve at half-maximal effect); details: HeLa HSE-bla reporter, beta-lactamase ratio, 5 h; activation: at 62.6 µM (top of the series) unless noted
# Summary of the method: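 HSE-bla HeLa cells (beta-lactamase reporter under heat shock response elements) were exposed to compounds for 5 h at 37 C, then loaded with LiveBLAzer B/G FRET substrate for 2.5 h at room temperature before fluorescence reading.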
# [4] = target: Peroxisome proliferator-activated receptor delta (Homo sapiens) (UniProt Q03181); experiment: qHTS assay to identify small molecule antagonists of the peroxisome proliferator-activated receptor delta (PPARd) signaling pathway (AID 743215; active = well fitted inhibition curve with a large enough effect in the signal ratio in the repeat runs, not every such curve was filed as active; inconclusive = weak or mixed curves, or effect the other way; inactive = no such curve, though single readings can be large or run the other way; the % refers to the signal ratio;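 also: cells stimulated with agonist L165041 at 300 nM final during compound exposure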); details: HEK293H PPARd-UAS-bla, beta-lactamase FRET ratio, antagonist, 17 h; ratio activity, negative = inhibition: at 62 µM (top of the series) unless noted
# Summary of the method: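 With L165041 present at 300 nM final, compounds were incubated 17 h at 37 C on PPARd UAS-bla HEK293H cells. A FRET-based beta-lactamase substrate was then applied for 2 h at room temperature and fluorescence intensity recorded.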
# [5] = qHTS assay to identify small molecule agonists of the farnesoid-X-receptor (FXR) signaling pathway - cell viability counter screen (AID 743218); details: FXR-bla HEK293T viability, CellTiter-Glo luminescence, 16 h; viability change, negative = cytotoxic: at 62.6 µM (top of the series) unless noted; also: nearly all actives have a fitted effect of over 45% in size; also: potency is read from the fitted curve at half-maximal effect
# Summary of the method: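 After 16 h at 37 C with test compounds, FXR-bla HEK 293T cells were given LiveBLAzer B/G substrate for 2 h at RT and then CellTiter-Glo; luminescence was taken after 30 min.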
# [6] = qHTS assay to identify small molecule antagonists of the sonic hedgehog signaling (Shh) pathway (AID 1259369; calls by dose curve; also: nearly all actives have a fitted effect of over 45% in size; also: potency is read from the fitted curve at half-maximal effect)
# Summary of the method: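 Conditioned medium drives Shh signalling in 3T3Gli1-Luc cells; compounds in DMSO co-applied, 24hr at 37 C, then luciferase luminescence.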
# [7] = target: Estrogen receptor beta (Homo sapiens) (UniProt Q92731); experiment: qHTS assay to identify small molecule agonists of the estrogen receptor beta (ER-beta) signaling pathway (AID 1259377; active = well fitted activation curve with a large enough effect in the signal ratio in the repeat runs, not every such curve was filed as active; inconclusive = weak or mixed curves, or effect the other way; the % refers to the signal ratio); details: ER-beta-UAS-bla HEK293T, beta-lactamase FRET ratio, 16 h; activation: at 92.4 µM (top of the series) unless noted
# Summary of the method: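 Read-out: beta-lactamase FRET fluorescence. Cell line: ER-beta-UAS-bla HEK293T in 2% charcoal-stripped FBS. Exposure: 16 hr at 37C. Substrate step: 2 h at room temperature.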
# [8] = A CellTox Green Cytotoxicity Assay to monitor cytotoxicity in HepG2 cells - 40 hour (AID 1224879); also: nearly all actives have a fitted effect of over 40% in size; also: potency is read from the fitted curve at half-maximal effect
# Summary of the method: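 Nonlytic assay: viable cells exclude the dye, so fluorescence scales with cell death. HepG2 at 600 cells/well, compounds added after 5 h, signal read across 40 h.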
# [9] = qHTS assay for identifying genotoxic compounds that show differential cytotoxicity against isogenic chicken DT40 cell lines with known DNA damage response pathways - Rad54/Ku70 mutant cell line (AID 743015); details: DT40 Rad54/Ku70 mutant viability, CellTiter-Glo, 40 h; activity change, negative = cytotoxicity: at 66.8 µM (top of the series) unless noted; also: nearly all actives have a fitted effect of over 60% in size; also: potency is read from the fitted curve at half-maximal effect
# [10] = target: Progesterone receptor (Homo sapiens) (UniProt P06401); experiment: qHTS assay to identify small molecule antagonists of the progesterone receptor (PR) signaling pathway (AID 1346795; active = well fitted inhibition curve with a large enough effect in the signal ratio in the repeat runs, not every such curve was filed as active; inconclusive = weak or mixed curves; the % refers to the signal ratio); details: PR-UAS-bla HEK293T, beta-lactamase FRET ratio, 16 h; activity change, negative = inhibition: at 92.4 µM (top of the series) unless noted
# Summary of the method: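 In HEK293T cells bearing the PR-UAS-bla reporter, compound effects on promegestone-driven (1 nM) beta-lactamase expression are assessed after 16 hr using a fluorescent FRET substrate incubated 2 hr at room temperature.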
# [11] = target: Estrogen receptor (Homo sapiens) (UniProt P03372); experiment: qHTS assay to identify small molecule agonists of the estrogen receptor alpha (ER-alpha) signaling pathway using the BG1 cell line (AID 743079); details: BG1Luc4E2 cells, ERE-luciferase agonist, 22 h; activation: at 70.3 µM (top of the series) unless noted; also: nearly all actives have a fitted effect of over 20% in size
# [12] = target: Vitamin D3 receptor (Homo sapiens) (UniProt P11473); experiment: qHTS assay to identify small molecule agonists of the vitamin D receptor (VDR) signaling pathway (AID 743222; calls by dose curve; also: potency is read from the fitted curve at half-maximal effect); details: HEK293T VDR-UAS-bla, beta-lactamase FRET ratio, 16 h; activation: at 63.5 µM (top of the series) unless noted
# Summary of the method: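 VDR-bla cells were seeded, left 4 h, treated with compounds in DMSO for 16 h, incubated 2 h at RT with B/G FRET substrate, and read for fluorescence.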
# [13] = A CellTox Green Cytotoxicity Assay to monitor cytotoxicity in HEK293 cells - 16 hour (AID 1224888); also: nearly all actives have a fitted effect of over 35% in size; also: potency is read from the fitted curve at half-maximal effect
# Summary of the method: as §1
# [14] = qHTS assay to identify small molecule antagonists of the vitamin D receptor (VDR) signaling pathway - cell viability counter screen (AID 743225); details: VDR-bla HEK293T viability, CellTiter-Glo luminescence, 16 h; viability change, negative = cytotoxic: at 61 µM (top of the series) unless noted; also: potency is read from the fitted curve at half-maximal effect; nearly all actives have a fitted effect of over 50% in size
# Summary of the method: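 Parallel cytotoxicity test: VDR-UAS-bla HEK 293T, 3 nM (final) 1-alpha,25-dihydroxyvitamin D3 with test compound, 16 h, 37C. Endpoint is CellTiter-Glo luminescence in the same wells.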
# [15] = target: Estrogen receptor beta (Homo sapiens) (UniProt Q92731); experiment: qHTS assay to identify small molecule antagonists of the estrogen receptor beta (ER-beta) signaling pathway (AID 1259378; active = well fitted inhibition curve with a large enough effect in the signal ratio in the repeat runs, not every such curve was filed as active; inconclusive = weak or mixed curves, or effect the other way; inactive = no such curve, though single readings can be large or run the other way; the % refers to the signal ratio); details: ER-beta-UAS-bla HEK293T, beta-lactamase FRET ratio, 16 h; activity, negative = inhibition: at 92.4 µM (top of the series) unless noted
# Summary of the method: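 ER-beta-UAS-bla HEK293T (GripTite) cells in 2% charcoal-stripped FBS medium were preincubated 6 hr at 37C, dosed with compound, then stimulated with 1 nM E2 (final) for 16 hr; beta-lactamase reporter read by B/G FRET fluorescence after 2 hr substrate loading.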
# [16] = qHTS assay to identify small molecule agonists of the estrogen receptor beta (ER-beta) signaling pathway - cell viability counter screen (AID 1259380); also: nearly all actives have a fitted effect of over 30% in size
# Summary of the method: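 Cells used were ER-beta-UAS-bla HEK293T in medium with 2% charcoal-stripped FBS. They were treated for 16 hr at 37C. Viability came from CellTiter-Glo luminescence.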
# [17] = qHTS RealTime-Glo MT Cell Viability Assay in HEK293 cells - 16 hour (AID 1224872); also: nearly all actives have a fitted effect of over 50% in size; also: potency is read from the fitted curve at half-maximal effect; as to activity change, negative = cytotoxicity: top concentration of the series differs between compounds
# Summary of the method: (§2)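 Cells + reagent dispensed (600 cells/well, HEK293) → 5 h at 37 C/5% CO2 → 23 nL compound in DMSO pinned → 40 h at 37 C → luminescence read at 0, 8, 16, 24, 32, 40 h.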
# [18] = target: Thyrotropin receptor (Homo sapiens) (UniProt P16473); experiment: qHTS assay to identify small molecule antagonists of the thyroid stimulating hormone receptor (TSHR) signaling pathway (AID 1259385; calls by dose curve; also: nearly all actives have a fitted effect of over 20% in size); details: TSHR-HEK293 cAMP HTRF, TSH-stimulated antagonist mode; activity change, negative = inhibition: at 92.4 µM (top of the series) unless noted
# Summary of the method: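 TSHR-HEK293 cells were plated and held 18 h at 37C/5% CO2, then given compound plus Ro20-1724 and stimulated with TSH at 1.5 ng/mL final. After 30 min at room temperature, cAMP was detected with cAMP-d2/anti-cAMP-cryptate (1 h) by fluorescence.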
# [19] = qHTS RealTime-Glo MT Cell Viability Assay in HEK293 cells - 24 hour (AID 1224886); also: nearly all actives have a fitted effect of over 50% in size; also: potency is read from the fitted curve at half-maximal effect; as to activity change, negative = cytotoxicity: top concentration of the series differs between compounds
# Summary of the method: as §2
# Tags tell the direction and shape of the fitted curve or compound fluorescence and quenching.
# UniProt P06401, sequence (P06401 whole entry, looked up): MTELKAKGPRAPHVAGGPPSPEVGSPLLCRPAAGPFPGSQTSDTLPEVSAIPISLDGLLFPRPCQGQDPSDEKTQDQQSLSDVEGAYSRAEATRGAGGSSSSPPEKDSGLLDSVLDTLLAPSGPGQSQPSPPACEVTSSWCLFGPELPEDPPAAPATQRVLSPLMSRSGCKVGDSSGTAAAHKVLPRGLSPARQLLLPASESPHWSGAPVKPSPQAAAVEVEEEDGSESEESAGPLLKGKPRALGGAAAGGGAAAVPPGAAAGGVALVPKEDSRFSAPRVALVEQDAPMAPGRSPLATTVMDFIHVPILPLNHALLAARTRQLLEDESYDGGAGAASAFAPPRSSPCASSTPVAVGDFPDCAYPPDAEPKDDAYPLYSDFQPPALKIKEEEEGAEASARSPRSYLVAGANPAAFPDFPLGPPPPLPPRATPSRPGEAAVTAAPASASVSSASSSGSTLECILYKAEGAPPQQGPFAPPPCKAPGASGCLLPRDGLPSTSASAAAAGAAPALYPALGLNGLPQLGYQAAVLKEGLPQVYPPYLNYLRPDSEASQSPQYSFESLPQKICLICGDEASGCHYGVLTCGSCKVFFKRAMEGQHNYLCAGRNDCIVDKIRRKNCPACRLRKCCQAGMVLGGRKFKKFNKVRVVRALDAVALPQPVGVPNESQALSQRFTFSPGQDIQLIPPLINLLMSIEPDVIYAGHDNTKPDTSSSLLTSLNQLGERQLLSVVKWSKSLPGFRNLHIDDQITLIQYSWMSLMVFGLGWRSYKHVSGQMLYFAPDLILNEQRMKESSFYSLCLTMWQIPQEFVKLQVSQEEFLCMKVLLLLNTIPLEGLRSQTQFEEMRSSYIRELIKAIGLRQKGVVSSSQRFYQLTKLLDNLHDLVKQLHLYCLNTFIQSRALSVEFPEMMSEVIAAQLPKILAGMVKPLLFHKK
# UniProt Q92731, sequence (Q92731 whole entry, looked up): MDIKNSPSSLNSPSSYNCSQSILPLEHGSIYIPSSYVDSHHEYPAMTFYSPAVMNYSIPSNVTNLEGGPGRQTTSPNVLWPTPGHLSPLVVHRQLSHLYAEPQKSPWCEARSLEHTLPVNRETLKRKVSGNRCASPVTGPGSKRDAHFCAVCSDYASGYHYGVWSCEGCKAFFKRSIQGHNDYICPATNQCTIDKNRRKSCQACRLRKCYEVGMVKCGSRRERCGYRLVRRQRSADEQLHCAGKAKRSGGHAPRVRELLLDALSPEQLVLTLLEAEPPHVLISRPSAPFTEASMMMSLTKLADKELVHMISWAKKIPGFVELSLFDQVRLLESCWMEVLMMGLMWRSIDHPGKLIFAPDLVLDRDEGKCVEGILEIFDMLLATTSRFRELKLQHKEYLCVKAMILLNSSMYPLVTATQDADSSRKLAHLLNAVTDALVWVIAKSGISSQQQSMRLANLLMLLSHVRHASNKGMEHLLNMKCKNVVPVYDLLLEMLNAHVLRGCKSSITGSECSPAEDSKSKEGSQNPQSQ
# UniProt P11473, sequence (P11473 whole entry, looked up): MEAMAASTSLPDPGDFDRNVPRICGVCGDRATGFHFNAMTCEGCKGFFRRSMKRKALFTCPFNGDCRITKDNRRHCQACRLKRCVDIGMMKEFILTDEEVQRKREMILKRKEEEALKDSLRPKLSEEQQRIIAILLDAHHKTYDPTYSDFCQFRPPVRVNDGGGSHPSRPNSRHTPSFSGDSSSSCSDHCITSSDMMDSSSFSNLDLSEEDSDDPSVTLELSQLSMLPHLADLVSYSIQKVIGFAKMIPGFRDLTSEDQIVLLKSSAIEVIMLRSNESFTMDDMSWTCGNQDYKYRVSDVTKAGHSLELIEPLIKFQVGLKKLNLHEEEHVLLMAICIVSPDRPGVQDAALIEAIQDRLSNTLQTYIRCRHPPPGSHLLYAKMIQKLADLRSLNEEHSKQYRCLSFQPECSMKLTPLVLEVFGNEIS
# UniProt Q03181, sequence (Q03181 whole entry, looked up): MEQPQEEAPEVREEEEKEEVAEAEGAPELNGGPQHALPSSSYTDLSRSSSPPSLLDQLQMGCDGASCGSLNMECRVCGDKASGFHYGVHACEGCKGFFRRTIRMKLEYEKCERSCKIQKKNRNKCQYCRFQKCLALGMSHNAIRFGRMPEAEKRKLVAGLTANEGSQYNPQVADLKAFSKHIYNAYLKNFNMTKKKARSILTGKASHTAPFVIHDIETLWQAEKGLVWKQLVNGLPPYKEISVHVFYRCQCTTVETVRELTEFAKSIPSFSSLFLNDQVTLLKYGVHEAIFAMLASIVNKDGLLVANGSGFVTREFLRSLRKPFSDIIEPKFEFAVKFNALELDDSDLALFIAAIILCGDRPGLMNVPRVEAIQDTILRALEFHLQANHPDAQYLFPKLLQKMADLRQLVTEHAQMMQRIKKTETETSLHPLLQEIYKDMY
# UniProt P16473, sequence (P16473 whole entry, looked up): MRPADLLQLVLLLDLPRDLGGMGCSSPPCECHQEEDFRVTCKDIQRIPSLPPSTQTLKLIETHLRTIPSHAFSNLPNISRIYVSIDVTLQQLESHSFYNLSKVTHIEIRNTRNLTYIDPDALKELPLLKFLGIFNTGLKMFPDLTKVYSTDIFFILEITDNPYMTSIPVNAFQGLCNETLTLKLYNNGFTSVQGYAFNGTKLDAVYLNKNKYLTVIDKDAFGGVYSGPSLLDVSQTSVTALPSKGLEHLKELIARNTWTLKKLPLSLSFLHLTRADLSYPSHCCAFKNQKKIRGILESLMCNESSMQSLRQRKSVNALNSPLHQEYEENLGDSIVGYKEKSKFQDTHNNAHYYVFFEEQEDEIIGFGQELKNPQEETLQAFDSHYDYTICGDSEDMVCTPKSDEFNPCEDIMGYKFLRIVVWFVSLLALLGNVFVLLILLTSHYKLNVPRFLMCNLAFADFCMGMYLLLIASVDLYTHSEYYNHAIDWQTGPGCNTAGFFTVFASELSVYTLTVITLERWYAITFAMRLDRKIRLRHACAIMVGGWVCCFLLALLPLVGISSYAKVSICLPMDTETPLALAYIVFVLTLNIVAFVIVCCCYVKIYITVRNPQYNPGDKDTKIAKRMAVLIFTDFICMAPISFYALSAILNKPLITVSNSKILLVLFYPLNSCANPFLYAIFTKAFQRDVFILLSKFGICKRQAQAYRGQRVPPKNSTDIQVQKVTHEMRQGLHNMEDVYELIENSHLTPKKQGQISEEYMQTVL
# UniProt P03372, sequence (P03372 whole entry, looked up): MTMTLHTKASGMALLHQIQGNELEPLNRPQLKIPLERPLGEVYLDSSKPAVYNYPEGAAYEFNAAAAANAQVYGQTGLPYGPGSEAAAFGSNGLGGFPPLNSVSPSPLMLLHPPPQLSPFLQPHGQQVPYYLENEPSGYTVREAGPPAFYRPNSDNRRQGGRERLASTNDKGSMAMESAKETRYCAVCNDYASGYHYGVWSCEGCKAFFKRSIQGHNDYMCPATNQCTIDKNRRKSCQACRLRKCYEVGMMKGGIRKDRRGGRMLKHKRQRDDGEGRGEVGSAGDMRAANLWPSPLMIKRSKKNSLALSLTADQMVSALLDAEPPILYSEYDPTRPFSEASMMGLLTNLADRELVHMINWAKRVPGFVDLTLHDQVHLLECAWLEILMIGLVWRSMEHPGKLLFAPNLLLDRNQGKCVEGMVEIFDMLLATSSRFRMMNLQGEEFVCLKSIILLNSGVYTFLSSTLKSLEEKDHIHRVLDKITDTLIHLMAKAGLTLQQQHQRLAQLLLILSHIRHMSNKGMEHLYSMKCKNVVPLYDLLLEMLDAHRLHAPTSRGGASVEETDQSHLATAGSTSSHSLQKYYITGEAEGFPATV
structure (smiles),measurement,setting,value
COCCCN1CCC(NC(=O)c2cc(Cl)c(N)c3c2OCC3)CC1,Potency,[1],inactive
CC(C)N(c1ccccc1)C(C)C,Potency,[2],inactive
same,Potency,[3],inactive
same,Potency,[4],inactive
same,Potency,[5],inactive
same,Potency,[6],inactive
same,Potency,[7],inactive
FC(F)(F)c1ccccc1,Potency,[4],inactive
same,Potency,[8],inactive
CCCCC/C=C/CC(=O)OC,Potency,[2],"inconclusive: 68.6 µM [cytotoxic, single point]"
same,Potency,[9],"inconclusive: 43.3 µM [cytotoxic, partial curve]"
same,"activity change, negative = inhibition",[10],inconclusive: 1.65%
C=C/C=C/C=C/CCCCC,activation,[7],inactive: -0.263% [at 19 µM]
same,"activity change, negative = inhibition",[10],inconclusive: 0% [at 18.9 µM]
C[N+]1(C)CCC(OC(=O)C(O)(c2ccccc2)C2CCCC2)C1 (configuration not stated),activation,[11],inconclusive: 6.1% [phenotype inactive]
same,Potency,[12],inactive
same,Potency,[1],"inconclusive: 23.9 µM [activator, partial curve, poor fit]"
same,Potency,[13],"inconclusive: 23.9 µM [activator, single point]"
CCCC(=O)OCCC(C)CCC=C(C)C (configuration not stated),Potency,[2],"inconclusive: 61.1 µM [cytotoxic, partial curve]"
same,Potency,[9],"inconclusive: 68.6 µM [cytotoxic, single point]"
same,Potency,[3],inconclusive: 54.9 µM
same,Potency,[4],inactive
same,Potency,[12],"inconclusive: 61.6 µM [rising, single point]"
same,Potency,[14],"inconclusive: 34.7 µM [cytotoxic, partial curve, poor fit]"
same,Potency,[6],"inconclusive: 15.4 µM [inhibitor, full curve]"
same,Potency,[15],inactive
CO/N=C(/C(=O)N[C@@H]1C(=O)N2C(C(=O)OCOC(=O)C(C)(C)C)=C(C)CS[C@H]12)c1csc(N)n1,Potency,[16],inactive
CC(C)CCCC(C)NCCC(C)C (configuration not stated),Potency,[12],inactive
same,Potency,[6],inactive
same,activation,[7],inconclusive: -0.713% [at 42.5 µM]
COC(=O)CCCCC(=O)O,Potency,[9],"inconclusive: 27.3 µM [rising, full curve, poor fit]"
same,Potency,[5],"inconclusive: 12.3 µM [rising, partial curve, poor fit]"
same,Potency,[8],"inconclusive: 21.9 µM [activator, single point]"
C=CC(=O)O[C@H]1C[C@@H]2CC[C@@]1(C)C2(C)C,Potency,[1],inactive
same,Potency,[6],"inconclusive: 6.86 µM [inhibitor, single point]"
CCO[Si](CC)(OCC)OCC,Potency,[17],inactive
same,Potency,[6],inactive
same,Potency,[7],inactive
CCOC(=O)OC(=O)OCC,activation,[7],inconclusive: 12.6%
same,Potency,[10],inactive
CC(=O)NCCCCCC(=O)O,Potency,[8],inactive
C=C(C)CCCC,Potency,[6],"inconclusive: 0.243 µM [inhibitor, partial curve]"
same,Potency,[10],inactive
c1ccccc1,Potency,[16],inactive
same,Potency,[10],inactive
CCOc1ccccc1OCC,Potency,[6],inactive
same,Potency,[15],inactive
CC(C)OCCO,Potency,[15],inactive
NC(=O)Nc1ccc(Cl)cc1,"ratio activity, negative = inhibition",[4],inconclusive: 13.1%
same,Potency,[8],"inconclusive: 21.8 µM [activator, single point]"
same,Potency,[10],inactive
CCC1(C)C(=O)N(Cl)C(=O)N1Cl (configuration not stated),activation,[7],inconclusive: 12.2%
CCC(C)S (configuration not stated),activation,[3],inconclusive: -1.05% [at 2.7 µM]
same,activation,[12],inactive: 12.2% [at 2.71 µM]
same,"activity change, negative = inhibition",[10],inactive: 8.27% [at 3.27 µM]
Cc1ccccc1OCC(=O)O,Potency,[3],inactive
C=CCn1c(=O)n([C@@H]2O[C@H](CO)[C@@H](O)[C@H]2O)c2nc(N)[nH]c(=O)c21,Potency,[1],inactive
same,Potency,[18],inactive
CC(C)OC(=O)OCOP(=O)(CO[C@H](C)Cn1cnc2c(N)ncnc21)OCOC(=O)OC(C)C,Potency,[12],inactive
same,Potency,[19],inactive
[Cl][Sc]([Cl])[Cl],Potency,[18],inactive
CC(=O)NC(=O)c1ccccc1O,Potency,[16],inactive
CC[C@H]1OC(=O)[C@H](C)[C@@H](O[C@H]2C[C@@](C)(OC)[C@@H](O)[C@H](C)O2)[C@H](C)[C@@H](O[C@@H]2O[C@H](C)C[C@H](N(C)C)[C@H]2O)[C@](C)(OC)C[C@@H](C)C(=O)[C@H](C)[C@@H](O)[C@]1(C)O,Potency,[3],inactive
same,Potency,[5],"inconclusive: 6.22 µM [rising, partial curve, poor fit]"
COc1nc(N)nc2nc[nH]c12,Potency,[14],"inconclusive: 0.0777 µM [cytotoxic, full curve, poor fit]"
same,Potency,[17],"inconclusive: 61.7 µM [cytotoxic, single point]"
same,Potency,[19],"inconclusive: 61.7 µM [cytotoxic, partial curve, poor fit]"
same,Potency,[13],inactive
CCCCCCCCC(=O)Cl,Potency,[4],inactive
same,Potency,[6],inactive
same,Potency,[10],inactive
ClCCCl,Potency,[5],"inconclusive: 5.31 µM [rising, partial curve, poor fit]"
CC(=O)Nc1ccccc1O,Potency,[15],inactive
Cc1cccc(C)c1NC(=O)CC12CCCN1CCC2,Potency,[8],"inconclusive: 26.8 µM [activator, single point]"
same,"activity, negative = inhibition",[15],inconclusive: -10.1% [at 42.5 µM]
Cc1nc2n(c(=O)c1CCN1CCC(C(=O)c3ccc(F)cc3)CC1)CCS2,Potency,[17],active: 9.52 µM
Cc1cccc(C)c1O,Potency,[9],inactive
